{"source": "PubChem BioAssay AID485294", "about": "(National Center for Advancing Translational Sciences (NCATS), 2010)", "note": "In all, about 370,000 compounds went through this assay and about 150 (0.041%) were called active. This list was built around the results that the source calls inconclusive (neither active nor inactive); the mix of calls is not that of the screen. The call rests on the fitted dose curve; in most records, active means well fitted inhibition curve with a large enough effect; inconclusive means small, poorly fitted or top-dose-only effect; inactive means flat fitted curve, though single readings scatter. No potency is given beside an inconclusive call; the fits are too rough. Potency means the concentration at half of the fitted maximal effect; tags describe the fitted curve by direction and shape."}
{"biological_target": "Beta-lactamase (Escherichia coli (strain K12)) (UniProt P00811)", "sequence (P00811 whole entry, looked up)": "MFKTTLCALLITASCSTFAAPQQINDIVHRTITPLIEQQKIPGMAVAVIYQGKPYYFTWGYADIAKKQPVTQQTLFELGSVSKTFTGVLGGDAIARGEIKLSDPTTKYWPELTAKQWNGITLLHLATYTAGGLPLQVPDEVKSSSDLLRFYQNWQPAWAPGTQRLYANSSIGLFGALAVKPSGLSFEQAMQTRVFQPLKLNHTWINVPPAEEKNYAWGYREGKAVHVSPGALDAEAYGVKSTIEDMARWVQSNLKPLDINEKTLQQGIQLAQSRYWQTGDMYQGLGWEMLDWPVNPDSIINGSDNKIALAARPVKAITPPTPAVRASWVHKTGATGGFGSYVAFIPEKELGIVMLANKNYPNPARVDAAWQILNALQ", "assay": "qHTS Inhibitors of AmpC Beta-Lactamase (assay with detergent); further: nearly all actives have a fitted effect of over 25% in size;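 on activity change, negative = inhibition: 0% = no-compound wells and -100% = no-enzyme wells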", "conditions": "AmpC hydrolysis of nitrocefin, absorbance 480 nm, 0.01% Triton; activity change, negative = inhibition: at 114 µM (top of the series)", "summary_of_the_method": "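20 mM phosphate pH 7.0 + 0.01% (detergent screen) or 0.0001% Triton X-100; 5.3 nM AmpC reagent; cpd preinc 15 min RT; nitrocefin (800 uM stock) to start; A480 q20 s × 4 min; Activity was normalised to no-enzyme and no-compound control wells.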"}
{"smiles": "CCOc1cc(-c2noc(CCC(=O)Nc3cccnc3)n2)ccc1OC", "Potency": "inconclusive [inhibitor, full curve, poor fit]"}
{"smiles": "Cc1ccc(N2C(=O)CS(=O)C(c3ccccc3)C2=O)cc1C", "note": "(centres undefined)", "activity change, negative = inhibition": "inactive: -1.15%"}
{"smiles": "O=C(Nc1nc(-c2ccccn2)cs1)c1cc(Cl)ccc1[N+](=O)[O-]", "Potency": "inconclusive [inhibitor, full curve, poor fit]"}
{"smiles": "Cc1ccccc1-n1ncc(C(C)NC(=O)c2ccco2)c1C", "note": "(centres undefined)", "activity change, negative = inhibition": "inactive: -2.51%"}
{"smiles": "COCc1nnc(NC(=O)C(C)C)s1", "activity change, negative = inhibition": "inactive: -14.9%"}
{"smiles": "CC12c3ccccc3C(c3ccccc31)C1C(=O)N(c3cccnc3)C(=O)C12", "note": "(centres undefined)", "Potency": "inconclusive [inhibitor, full curve, poor fit]"}
{"smiles": "COc1ccccc1N(C)S(=O)(=O)c1ccc(Cl)c(C(=O)NC2=NCCS2)c1", "activity change, negative = inhibition": "inactive: -15.6%"}
{"smiles": "C/C(CC(=O)NCc1ccccc1Cl)=N/NC(=O)c1ccccn1", "activity change, negative = inhibition": "inactive: -14.9%"}
{"smiles": "Cc1nc(N2CCN(Cc3ccc4c(c3)OCO4)CC2)c2cc(-c3ccccc3)sc2n1", "Potency": "inconclusive [inhibitor, full curve, poor fit]"}
{"smiles": "N=c1c(C(=O)NCc2ccccc2)cc2c(=O)n3ccccc3nc2n1Cc1ccco1", "Potency": "inconclusive [inhibitor, single point]"}
{"smiles": "CSc1nc(N(C)NC(=O)c2ccc(F)cc2)c2ccccc2n1", "activity change, negative = inhibition": "inactive: 0.542%"}
{"smiles": "O=C(Nc1ccccc1Cl)c1cc2c(-c3ccccc3)nn(-c3ccccc3)c2s1", "activity change, negative = inhibition": "inactive: 16.6%"}
{"smiles": "COc1cc(C2CC(=O)Nc3c2c(C)nn3-c2nncc(-c3ccccc3)n2)cc(OC)c1OC", "note": "(centres undefined)", "activity change, negative = inhibition": "inactive: 0.792%"}
{"smiles": "CCC1(O)CC(C(=O)OC)=NN1C(=O)c1ccccc1", "note": "(centres undefined)", "Potency": "inconclusive [inhibitor, full curve, poor fit]"}
{"smiles": "COC(=O)c1nc(NC(=O)c2cc(OC)c(OC)c(OC)c2)n[nH]1", "activity change, negative = inhibition": "inactive: -3.28%"}
{"smiles": "Cc1oc(/C=N/NC(=O)CN(c2ccccc2Cl)S(C)(=O)=O)cc1Br", "Potency": "inconclusive [inhibitor, full curve, poor fit]"}
{"smiles": "CCc1ccc2c(c1)NC(c1cccnc1)=NC(c1ccc(C(C)(C)C)cc1)=N2", "activity change, negative = inhibition": "inactive: -3.55%"}
{"smiles": "N#Cc1c(C(F)(F)F)cc(-c2cccs2)nc1SCc1cccnc1", "activity change, negative = inhibition": "inactive: -9.59%"}
{"smiles": "CCN(CC(=O)Nc1c(F)cccc1F)C(=O)CCc1nc2sc3c(c2c(=O)[nH]1)CCCC3", "Potency": "inconclusive [inhibitor, full curve, poor fit]"}
{"smiles": "Cc1[nH]n(-c2ccccc2)c(=O)c1/C=N/NC(=O)c1cccc([N+](=O)[O-])c1", "activity change, negative = inhibition": "inactive: -14.9%"}
{"smiles": "CC(=O)Nc1nnc(SCC(=O)N2CCCc3ccccc32)s1", "Potency": "inconclusive [inhibitor, single point]"}
{"smiles": "O=C(Cn1c2ccccc2c(=O)c2ccccc21)Nc1ccccc1F", "activity change, negative = inhibition": "inactive: -2.06%"}
{"smiles": "COc1cc(C(C#N)N2CCC(c3ccccc3)=N2)ccc1O", "note": "(centres undefined)", "activity change, negative = inhibition": "inactive: 8.74%"}
{"smiles": "COc1cccc(CN2CC(C(=O)N3CCCO3)CCC2=O)c1", "note": "(centres undefined)", "Potency": "inconclusive [inhibitor, full curve, poor fit]"}
{"smiles": "Fc1ccc(C2CC(c3cccs3)=NN2C(=S)Nc2ccccc2)cc1", "note": "(centres undefined)", "Potency": "inconclusive [inhibitor, single point]"}
{"smiles": "O=c1c2cc(N3CCOCC3)ccc2[nH]c(=S)n1Cc1ccc(Cl)cc1", "activity change, negative = inhibition": "inactive: 2.63%"}
{"smiles": "COc1ccc(C(CNC(=O)c2cc3ccccc3o2)N2CCCC2)cc1", "note": "(centres undefined)", "Potency": "inconclusive [inhibitor, full curve]"}
{"smiles": "COc1ccc(CNc2ccc(C(=O)O)cc2)cc1", "activity change, negative = inhibition": "inactive: -11.1%"}
{"smiles": "CCCOC1CCCN(C(=O)c2cc(COc3ccc(F)c(F)c3)on2)C1", "note": "(centres undefined)", "Potency": "inconclusive [inhibitor, full curve]"}
{"smiles": "Cc1ccc(C)c(N2CCN(C(=O)CN(C)S(=O)(=O)c3ccc4c(c3)CCC(=O)N4)CC2)c1", "Potency": "inconclusive [inhibitor, partial curve]"}
{"smiles": "COCCCN=C(c1ccco1)n1c(=S)nc(-c2ccco2)n(CCCOC)c1=S", "activity change, negative = inhibition": "inactive: -1.57%"}
{"smiles": "O=C1NC2(CCCCC2)Cc2ccccc21", "Potency": "inconclusive [inhibitor, full curve, poor fit]"}
{"smiles": "OCCC1CN(Cc2cc3ccccc3o2)CCN1Cc1ccc(F)cc1", "note": "(centres undefined)", "Potency": "inconclusive [inhibitor, full curve, poor fit]"}
{"smiles": "O=C(c1ccc(OC2CCN(C/C=C/c3ccccc3)CC2)cc1)N1CCCC1", "activity change, negative = inhibition": "inactive: -7.2%"}
{"smiles": "CCOC(=O)C1=C(CC)Nc2ccccc2N=C1NC(=O)c1cc(C)on1", "activity change, negative = inhibition": "inactive: -3.41%"}
{"smiles": "COc1cc(OC)c(Nc2c3c(nc4nc(-c5cccs5)nn24)CCCC3)cc1Cl", "activity change, negative = inhibition": "inactive: 4.05%"}
{"smiles": "CCOCCCNC(=S)NCCc1ccccc1", "Potency": "inconclusive [inhibitor, full curve]"}
{"smiles": "COc1cccc(CNC(=O)CSC(=S)N2CCCC2)c1", "Potency": "inconclusive [inhibitor, full curve, poor fit]"}
{"smiles": "COc1ccc(N(C)S(=O)(=O)c2cccc(C(=O)NCc3ccc(C)cc3)c2)cc1", "activity change, negative = inhibition": "inactive: -2.82%"}
{"smiles": "Cc1cc(C)c2oc(-c3ccc(C)c(NC(=S)NC(=O)c4cccs4)c3)nc2c1", "activity change, negative = inhibition": "inactive: 0.921%"}
{"smiles": "Cc1ccc(C(=O)CCNc2cccc(Br)c2)o1", "Potency": "inconclusive [inhibitor, partial curve]"}
{"smiles": "Cc1ccc(N2CC(NC(=O)C3CCCCC3)CC2=O)cc1C", "note": "(centres undefined)", "activity change, negative = inhibition": "inactive: 0.805%"}
{"smiles": "O=C(COC(=O)c1cc([N+](=O)[O-])ccc1NCc1ccccc1)NCc1ccccc1Cl", "Potency": "inconclusive [inhibitor, partial curve]"}
{"smiles": "CC(C)[C@H]1C(=O)Nc2ccccc2N1C(=O)N[C@@H](Cc1ccccc1)C(=O)N[C@@H](C(=O)O)c1ccccc1", "activity change, negative = inhibition": "inactive: -12.9%"}
{"smiles": "COC(=O)c1ccc(NC(=O)C2C3C=CC(O3)C2C(=O)O)cc1", "note": "(centres undefined)", "Potency": "inconclusive [inhibitor, partial curve, poor fit]"}
{"smiles": "CC(=O)Nc1ccc2c(c1)n(C)c(=O)n2C", "activity change, negative = inhibition": "inactive: 1.2%"}
{"smiles": "Oc1ccc(C=NC2CCCCC2)c(O)c1", "activity change, negative = inhibition": "inactive: -5.09%"}
{"smiles": "COCC(=O)Nc1nnc(CCc2ccccc2)s1", "Potency": "inconclusive [inhibitor, full curve, poor fit]"}
{"smiles": "COc1ccc(C(=O)CSc2ccc(-c3ccccc3)nn2)cc1", "Potency": "inconclusive [inhibitor, partial curve, poor fit]"}
{"smiles": "Cc1cc(C)c2nc(NC(=O)c3ccc([N+](=O)[O-])o3)sc2c1", "Potency": "inconclusive [inhibitor, partial curve]"}
{"smiles": "CC(=O)OC(C(=O)NC1CCCCC1)c1ccc(C)cc1", "note": "(centres undefined)", "Potency": "inconclusive [inhibitor, full curve, poor fit]"}
{"smiles": "O=C(NC1CCCC1)C(c1ccccn1)N(Cc1ccccc1F)C(=O)c1csnn1", "note": "(centres undefined)", "activity change, negative = inhibition": "inactive: -2.84%"}
{"smiles": "COc1cc(OC)cc(C(=O)OCC(=O)Nc2ccc(F)cc2F)c1", "Potency": "inconclusive [inhibitor, full curve]"}
{"smiles": "Cc1nc(-c2ccc3c(c2)OCO3)cs1", "activity change, negative = inhibition": "inactive: -5.55%"}
{"smiles": "NC(=O)c1ccccc1NC(=O)Nc1ccccc1Cl", "activity change, negative = inhibition": "inactive: -5.44%"}
{"smiles": "Cc1ccc2c(c1)NC(=O)C(CC(=O)NC1CCCCC1C)O2", "note": "(centres undefined)", "Potency": "inconclusive [inhibitor, partial curve, poor fit]"}
{"smiles": "Cn1ccnc1Sc1cc(Cl)ccc1[N+](=O)[O-]", "Potency": "inconclusive [inhibitor, partial curve]"}
{"smiles": "N#CCSc1nc2ccccc2c(=O)n1CC1CCCC1", "activity change, negative = inhibition": "inactive: 2.45%"}
{"smiles": "Cc1cccc(N2C(=O)CC(N3CCN(c4ccccc4)CC3)C2=O)c1", "note": "(centres undefined)", "activity change, negative = inhibition": "inactive: -6.5%"}
{"smiles": "CCc1ccccc1Nc1nn2c(=O)c3ccc(C(=O)NC4CCCCC4)cc3nc2s1", "Potency": "inconclusive [inhibitor, single point]"}
{"smiles": "CC1CN(C)CCC1OC(=O)c1ccccc1", "note": "(centres undefined)", "Potency": "inconclusive [inhibitor, full curve, poor fit]"}
{"smiles": "CCn1cc(C(=O)OCC(=O)Nc2ccc(S(=O)(=O)N3CCCC3)cc2)c(=O)c2ccc(C)nc21", "Potency": "inconclusive [inhibitor, partial curve, poor fit]"}
{"smiles": "Cc1nn(C(=O)c2ccc3c(c2)OCO3)c(N)c1-c1ccccc1", "Potency": "inconclusive [inhibitor, full curve, poor fit]"}
{"smiles": "CC(C)CCn1cnc2c1c(=O)n(C)c(=O)n2C", "Potency": "inconclusive [inhibitor, single point]"}
{"smiles": "CCc1nnc(NC(=O)c2ccc(-c3ccc(Cl)cc3)o2)s1", "Potency": "inconclusive [inhibitor, single point]"}
{"smiles": "O=c1[nH]c(NCCO)nc2c1C1(CCCCC1)Cc1ccccc1-2", "Potency": "inconclusive [inhibitor, full curve, poor fit]"}
{"smiles": "CC(=Nc1ccccc1O)c1sc2ccccc2c1O", "activity change, negative = inhibition": "inactive: -4.95%"}
{"smiles": "Fc1cccc(Cl)c1CSC1=NCCS1", "Potency": "inconclusive [inhibitor, partial curve]"}
{"smiles": "C[C@H](NC(=O)c1ccco1)C(=O)N1CCCC1", "Potency": "inconclusive [inhibitor, partial curve]"}
{"smiles": "CC1Cc2cc(-c3csc(NC(=O)Cc4ccccc4)n3)ccc2N1S(C)(=O)=O", "note": "(centres undefined)", "Potency": "inconclusive [inhibitor, partial curve]"}
{"smiles": "COc1ccccc1C(CNC(=O)c1ccc(NS(=O)(=O)c2ccc(F)c(C)c2)cc1)N1CCCC1", "note": "(centres undefined)", "activity change, negative = inhibition": "inactive: -8.46%"}
{"smiles": "O=C(O)c1ccc(S(=O)(=O)N2CCCC2)cc1", "Potency": "inconclusive [inhibitor, full curve, poor fit]"}
{"smiles": "O=C(NC1CCCCC1)C(c1ccccc1)N(Cc1ccco1)C(=O)c1csnn1", "note": "(centres undefined)", "Potency": "inconclusive [inhibitor, full curve, poor fit]"}
{"smiles": "Cc1ccc(NC(=O)c2ccc3c(=O)n4c(nc3c2)CCCCC4)nc1", "Potency": "inconclusive [inhibitor, full curve, poor fit]"}
